Measurements published in paper PMC7363125.
Positions count from the first letter of the chain named. These are yes or no findings as the source states them, for the method shown. In cells and extracts the contact can be indirect. Some results given as binding are weak or reduced against the parent protein; the word gives no strength. Where a sequence is shown, tags or fusion partners need not be part of it.

Assays:
Assay in all cases: pull-down; 5 ug GST-PLEKHA7 WW bait (E. coli) coupled to GSH-Sepharose beads, washed, incubated 1 h at 4 °C with normalized HEK cell lysate holding PDZD11-HA or CFP-HA; immunoblot with anti-HA; only the target purified
[1] = target: T1, GST-PLEKHA7 (human) WW1 domain (residues 1-56), WT (human) (UniProt Q6IQ23)
T1 sequence: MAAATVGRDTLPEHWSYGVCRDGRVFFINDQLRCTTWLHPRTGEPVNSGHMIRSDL

[2] = target: T2, GST-PLEKHA7 WW1 + WW2 domain (1-162) D74A (human) (UniProt Q6IQ23)
T2 sequence: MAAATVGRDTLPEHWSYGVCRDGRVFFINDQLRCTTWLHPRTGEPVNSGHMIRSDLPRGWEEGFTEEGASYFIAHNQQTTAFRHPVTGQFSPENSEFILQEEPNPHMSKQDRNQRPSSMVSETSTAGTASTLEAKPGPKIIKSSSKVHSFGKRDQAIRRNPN

[3] = target: T3, GST-PLEKHA7 WW1 + WW2 domain (1-162) N76A (human) (UniProt Q6IQ23)
T3 sequence: T2 sequence with A74D, N76A

[4] = target: T4, GST-PLEKHA7 WW1 + WW2 domain (1-162) R33A + H75A (human) (UniProt Q6IQ23)
T4 sequence: T2 sequence with R33A, A74D, H75A

[5] = target: T5, GST-PLEKHA7 WW1 + WW2 domain (1-162) T35A + D74A (human) (UniProt Q6IQ23)
T5 sequence: T2 sequence with T35A

[6] = target: T6, GST-PLEKHA7 WW1 + WW2 domain (1-162) V25A (human) (UniProt Q6IQ23)
T6 sequence: T2 sequence with V25A, A74D

[7] = target: T7, GST-PLEKHA7 WW1 + WW2 domain (1-162), mutation within the WW2 domain at position 60 (human) (UniProt Q6IQ23)
T7 sequence: T2 sequence with W60A, A74D

[8] = target: T8, GST-PLEKHA7 WW1 + WW2 domain (1-162), mutation within the WW2 domain at position 68 (human) (UniProt Q6IQ23)
T8 sequence: T2 sequence with G68A, A74D

[9] = target: T9, GST-PLEKHA7 WW1 domain (residues 1-56) N29A (human) (UniProt Q6IQ23)
T9 sequence: T1 sequence with N29A

[10] = target: T10, GST-PLEKHA7 WW1 domain (residues 1-56) V25A (human) (UniProt Q6IQ23)
T10 sequence: T1 sequence with V25A

binding [1]: binds
binding [2]: binds
binding [3]: binds
binding [4]: binds
binding [5]: binds
binding [6]: binds
binding [7]: binds
binding [8]: binds
binding [9]: no binding
binding [10]: no binding
B1: PDZD11-HA (human) full-length (protein, UniProt Q5EBL8 1-140)
chain: MDSRIPYDDYPVVFLPAYENPPAWIPPHERVHHPDYNNELTQFLPRTITLKKPPGAQLGFNIRGGKASQLGIFISKVIPDSDAHRAGLQEGDQVLAVNDVDFQDIEHSKAVEILKTAREISMRVRFFPYNYHRQKERTVH
